Test results reported in article PMC8578381.
These are yes or no findings as the source states them, for the method shown. In cells and extracts the contact can be indirect. Some results given as binding are weak or reduced against the parent protein; the word gives no strength. Where a sequence is shown, tags or fusion partners need not be part of it.

Amino acid sequences for entries named in this document (tags omitted).
UniProt Q39026: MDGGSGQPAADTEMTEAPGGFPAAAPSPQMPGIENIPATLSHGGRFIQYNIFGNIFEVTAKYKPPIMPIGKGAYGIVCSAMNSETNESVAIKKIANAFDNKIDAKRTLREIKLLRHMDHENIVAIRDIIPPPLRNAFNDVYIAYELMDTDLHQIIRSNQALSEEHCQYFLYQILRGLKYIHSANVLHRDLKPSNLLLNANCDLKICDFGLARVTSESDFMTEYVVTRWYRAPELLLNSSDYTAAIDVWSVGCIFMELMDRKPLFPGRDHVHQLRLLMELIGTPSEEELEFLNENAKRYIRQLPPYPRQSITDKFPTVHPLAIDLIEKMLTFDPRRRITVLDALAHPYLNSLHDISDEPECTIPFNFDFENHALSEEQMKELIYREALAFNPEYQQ

T1: MPK3-Cluc (MPK3 fused to the C-terminal fragment of firefly luciferase) (Arabidopsis) (UniProt Q39023)
T1 sequence: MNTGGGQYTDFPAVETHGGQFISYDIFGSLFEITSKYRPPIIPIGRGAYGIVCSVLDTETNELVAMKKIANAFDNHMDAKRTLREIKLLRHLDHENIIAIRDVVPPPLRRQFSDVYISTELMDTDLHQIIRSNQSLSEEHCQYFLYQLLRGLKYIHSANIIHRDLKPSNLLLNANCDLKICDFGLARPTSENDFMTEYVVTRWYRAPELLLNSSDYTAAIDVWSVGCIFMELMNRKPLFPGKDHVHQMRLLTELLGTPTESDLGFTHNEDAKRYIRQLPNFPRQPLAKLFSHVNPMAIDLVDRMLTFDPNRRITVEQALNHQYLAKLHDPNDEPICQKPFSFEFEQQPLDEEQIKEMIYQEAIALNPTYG

T2: Flag-MPK3 (Arabidopsis) (UniProt Q39023)
T2 sequence: T1 sequence

B1: VLN3-Nluc (Arabidopsis villin3 fused to the N-terminal fragment of firefly luciferase) (protein, UniProt O81645 1-965)
chain: MSGSTKVLDPAFQGVGQKPGTEIWRIENFEPVPVPKSEHGKFYMGDTYIVLQTTQNKGGAYLFDIHFWIGKDTSQDEAGTAAVKTVELDAALGGRAVQYREIQGHESDKFLSYFKPCIIPLEGGVASGFKKPEEEEFETRLYTCKGKRAVHLKQVPFARSSLNHDDVFILDTKEKIYQFNGANSNIQERAKALVVIQYLKDKFHEGTSDVAIVDDGKLDTESDSGEFWVLFGGFAPIARKVASEDEIIPETTPPKLYSIADGQVESIDGDLSKSMLENNKCYLLDCGSEIFIWVGRVTQVEERKTAIQAAEDFVASENRPKATRITRVIQGYEPHSFKSNFDSWPSGSATPANEEGRGKVAALLKQQGVGLKGLSKSTPVNEDIPPLLEGGGKLEVWYIDANSKTVLSKDHVGKLYSGDCYLVLYTYHSGERKEDYFLCCWFGKNSNQEDQETAVRLASTMTNSLKGRPVQARIFEGKEPPQFVALFQHMVVLKGGLSSGYKNSMTEKGSSGETYTPESIALIQVSGTGVHNNKALQVEAVATSLNSYDCFLLQSGTSMFLWVGNHSTHEQQELAAKVAEFLKPGTTIKHAKEGTESSSFWFALGGKQNFTSKKVSSETVRDPHLFSFSFNRGKFQVEEIHNFDQDDLLTEEMHLLDTHAEVFVWVGQCVDPKEKQTAFEIGQRYINLAGSLEGLSPKVPLYKITEGNEPCFFTTYFSWDSTKATVQGNSYQKKAALLLGTHHVVEDQSSSGNQGPRQRAAALAALTSAFNSSSGRTSSPSRDRSNGSQGGPRQRAEALAALTSAFNSSPSSKSPPRRSGLTSQASQRAAAVAALSQVLTAEKKKSPDTSPSAEAKDEKAFSEVEATEEATEAKEEEEVSPAAEASAEEAKPKQDDSEVETTGVTFTYERLQAKSEKPVTGIDFKRREAYLSEVEFKTVFGMEKESFYKLPGWKQDLLKKKFNLF
B2: GFP-VLN3 (protein, UniProt O81645 1-965)
chain: B1 chain
B3: MDP25 (actin regulator, negative control of the split-LUC assay) (protein, UniProt Q96262 1-225)
chain: MGYWNSKVVPKFKKLFEKNSAKKAAAAEATKTFDESKETINKEIEEKKTELQPKVVETYEATSAEVKALVRDPKVAGLKKNSAAVQKYLEELVKIEFPGSKAVSEASSSFGAGYVAGPVTFIFEKVSVFLPEEVKTKEIPVEEVKAEEPAKTEEPAKTEGTSGEKEEIVEETKKGETPETAVVEEKKPEVEEKKEEATPAPAVVETPVKEPETTTTAPVAEPPKP

What was measured:
[1] = target: MPK6-Cluc (MPK6 fused to the C-terminal fragment of firefly luciferase) (Arabidopsis) (UniProt Q39026); test: split reporter; split-luciferase complementation imaging; constructs transiently coexpressed in N. benthamiana leaves by Agrobacterium GV3101, 48 h; 1 mM luciferin sprayed, cooled CCD imaging
[2] = target: T1, MPK3-Cluc (MPK3 fused to the C-terminal fragment of firefly luciferase) (Arabidopsis); test: as above
Flag-MPK6 (Arabidopsis) = Flag-MPK6 (Arabidopsis) (UniProt Q39026); test: co-IP; total protein from N. benthamiana leaves coexpressing Flag-MPK3 or Flag-MPK6 and GFP-VLN3, 48 h; anti-Flag agarose beads 2 h; washed five times (50 mM HEPES pH 7.5, 150 mM KCl, 1 mM EDTA, 0.5% Triton X-100, 1 mM DTT); anti-GFP and anti-Flag immunoblot; with or without flg22 treatment
Flag-MPK3 (Arabidopsis) = target: T2, Flag-MPK3 (Arabidopsis); test: as above

Row | Binder | binding [1] | binding [2] | binding (Flag-MPK6 (Arabidopsis)) | binding (Flag-MPK3 (Arabidopsis))
1 | B1 | binds | binds |  | 
2 | B2 |  |  | binds | binds
3 | B3 | no binding | no binding |  | 
